Results reported in PMC4336329 (PLoS ONE, 2015).
About 14,000 (4.5%) of roughly 310,000 compounds showed an effect of 50% or more. The effect is printed as a negative number. The list shows a part of the results.

Biological target: human ether-à-go-go-related gene (hERG) potassium channel (human, UniProt Q12809)
Experiment: primary screen, population patch clamp on CHO cells stably expressing hERG
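Further: peak tail current of the secondary pulse compared with the same well before compound.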

Chain of human ether-à-go-go-related gene (hERG) potassium channel (Q12809 whole entry, looked up): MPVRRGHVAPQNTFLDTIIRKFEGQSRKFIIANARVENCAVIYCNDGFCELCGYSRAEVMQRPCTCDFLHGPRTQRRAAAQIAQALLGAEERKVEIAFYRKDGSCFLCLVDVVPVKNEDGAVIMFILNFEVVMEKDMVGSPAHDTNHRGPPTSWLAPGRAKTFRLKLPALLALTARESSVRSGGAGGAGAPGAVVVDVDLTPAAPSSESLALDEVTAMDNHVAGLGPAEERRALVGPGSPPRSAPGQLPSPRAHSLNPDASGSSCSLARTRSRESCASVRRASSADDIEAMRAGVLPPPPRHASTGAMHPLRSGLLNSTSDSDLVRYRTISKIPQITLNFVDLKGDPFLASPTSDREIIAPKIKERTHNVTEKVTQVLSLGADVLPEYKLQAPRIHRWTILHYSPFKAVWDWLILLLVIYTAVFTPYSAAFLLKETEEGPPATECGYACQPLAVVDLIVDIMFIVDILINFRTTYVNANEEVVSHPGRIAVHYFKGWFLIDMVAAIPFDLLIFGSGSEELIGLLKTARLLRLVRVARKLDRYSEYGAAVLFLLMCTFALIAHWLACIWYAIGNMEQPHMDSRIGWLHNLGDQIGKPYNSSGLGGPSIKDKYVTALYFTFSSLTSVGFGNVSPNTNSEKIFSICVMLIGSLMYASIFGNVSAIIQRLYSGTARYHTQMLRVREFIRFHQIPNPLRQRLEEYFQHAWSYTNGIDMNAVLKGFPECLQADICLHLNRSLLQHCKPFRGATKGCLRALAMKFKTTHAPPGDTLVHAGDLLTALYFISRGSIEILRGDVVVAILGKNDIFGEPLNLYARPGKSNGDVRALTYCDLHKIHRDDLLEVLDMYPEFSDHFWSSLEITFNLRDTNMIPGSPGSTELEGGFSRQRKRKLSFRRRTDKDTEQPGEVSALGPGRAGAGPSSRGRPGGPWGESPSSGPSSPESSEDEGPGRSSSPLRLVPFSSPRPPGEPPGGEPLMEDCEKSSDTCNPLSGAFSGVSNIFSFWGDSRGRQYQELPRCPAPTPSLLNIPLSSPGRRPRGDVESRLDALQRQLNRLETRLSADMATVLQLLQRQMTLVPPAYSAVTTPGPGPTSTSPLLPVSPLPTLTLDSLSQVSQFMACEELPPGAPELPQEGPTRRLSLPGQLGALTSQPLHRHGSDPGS

Structure (SMILES) | hERG current change (%, negative = inhibition) at 10uM [%]
COc1ccc(C2CC(c3ccccc3)=NN2C(=O)COC(=O)CNC(=O)c2ccccc2)cc1 (centres unmarked) | -26.3
N/C(=N\OC(=O)CC1CCCCC1)c1ccncc1 | 2.62
O=C1NC(=S)S/C1=C/c1ccc(Oc2cnccn2)cc1 | 20
NS(=O)(=O)c1ccc(CCNC2CC(=O)N(Cc3ccccc3)C2=O)cc1 (centres unmarked) | -17.3
O=C(COc1ccc(Cl)cc1Cl)Nc1ccccc1F | 9.98
CCOc1ccc(Oc2nc(NCC(C)C)nc(N(C)C)n2)nn1 | 4.63
O=C(NCC(=O)N(c1cccc(F)c1)C(C(=O)NCC1CCCO1)c1ccccc1)c1ccco1 (centres unmarked) | 6.26
COc1ccc(N2CCN(C(=O)CSc3nnc(-c4cc5ccccc5cc4O)n3C)CC2)cc1 | -12.4
O=C(NNC(=O)C1CC(c2cccnc2)=NO1)Nc1ccccc1F (centres unmarked) | -0.452
CCN(Cc1ccc2c(c1)OCO2)C(=O)CSc1nc(C)nc2sc(C)c(C)c12 | -5.76
CN(C)/C=C1\C(=O)ON=C1c1ccccc1 | 7.29
O=C(Nc1ncccc1O)c1ccc(Cl)c(S(=O)(=O)N2CCCCCC2)c1 | -61
COc1ccc(OC)c(N/C(N)=N/c2nc(C)cc(C)n2)c1 | -50.1
O=C(CSc1nc(-c2cccs2)nc2ccccc12)NC1CCS(=O)(=O)C1 (centres unmarked) | 6.45
Cc1cc(NC(=O)Nc2cccs2)no1 | 20.7
CC(=O)Nc1cc2nc(C)n(Cc3ccc([N+](=O)[O-])cc3)c2nc1C | 5.48
CCCn1c(C(C)Nc2nc(-c3cc(Cl)c(N)c(Cl)c3)cs2)nc2cc(Cl)c(N3CCCCC3)cc21 (centres unmarked) | -0.0189
Cc1ccc(S(=O)(=O)c2nc(-c3ccccc3)oc2NCCN2CCOCC2)cc1 | 3.12
Cc1nnc(SCc2cccc(Oc3ccccc3)c2)n1N | -10.5
O=C(NNc1c(Cl)cc(Cl)cc1Cl)c1n[nH]c(=O)c2ccccc12 | 0.99
O=C(NNC(=O)c1cc(-c2ccccc2)nc2ccccc12)c1csc(N2CCOCC2)n1 | 0.815
CCOc1ccc(C2N(c3cc(C)on3)C(=O)C3CCCN32)cc1OC (centres unmarked) | 12.5

Structure (SMILES) | hERG current change (%, negative = inhibition) at 10uM [%]
O=C1C(=O)N(c2ccccn2)C(c2ccc(F)cc2)/C1=C(/O)c1ccc(Br)cc1 (centres unmarked) | 2.03
COc1cccc(NC(=O)CN(C)S(=O)(=O)c2ccc(C)cc2)c1 | -7.36
CCc1noc(C)c1C(=O)Nc1ccccc1N1CCOCC1 | -14.9
COc1ccc(NC(=O)CCS(=O)(=O)c2ccc3c(c2)CCCN3C(C)=O)cc1Cl | -7.51
CCN(CC)CC#Cc1ccc(C)cc1.Cl | 7.47
Cc1ccc(S(=O)(=O)N2CCOCC2)cc1C(=O)NCC1CCCO1 (centres unmarked) | 5.88
COc1ccc(OCc2cc(C(=O)N3CCCC3)no2)c2ccccc12 | -27.9
CN1CCN(NC(=O)c2cc(-c3ccccn3)nc3ccccc23)CC1 | 14
CSCc1ccc(C(=O)NCC(c2cccs2)N2CCOCC2)cc1 (centres unmarked) | -3.08
COc1ccc(CC(=O)NCc2ccc3c(c2)cc(C)n3C)cc1 | 18.6
COc1ccc(C2C=C(c3ccc(C)c(C)c3)Nc3ncnn32)c(OC)c1OC (centres unmarked) | 3.18
C/C(=N\Nc1nc2ccccc2[nH]1)c1ccc(Cl)s1 | -4.3
Cc1cc(CN(C)Cc2ccc(OCC(O)CN(C)Cc3ccccc3)cc2)on1 (centres unmarked) | -4.84
Cn1c(N2CCCC2)nc2c1c(=O)[nH]c(=O)n2C | 10.8
COc1ccc(NC(=O)c2ccc(S(=O)(=O)N(C)C)cc2)cc1 | 4.19
CC1CCN(S(=O)(=O)c2ccc(C(=O)Nc3ccccc3-c3nc4ccccc4[nH]3)cc2)CC1 | 9.5
O=C1CSC(c2ccc(Cl)cc2)N1c1cccnc1 (centres unmarked) | 10.6
CCOc1cc(C2C(C(=O)c3ccco3)=C(O)C(=O)N2Cc2ccccc2)ccc1O (centres unmarked) | 25.8
CC(=O)/C(N=Nc1ccc2c(c1)OCCO2)=C(\C)O | 18.1
COc1ccc(-n2nc(C(=O)NCC(=O)N3CCN(c4ccc(F)cc4)CC3)c3ccccc3c2=O)c(OC)c1 | -42.8
COc1cccc(NC(=O)c2ccccc2-c2nc(-c3cccc(C)c3)no2)c1 | 0.852
CCCn1nnc(NC(=O)c2ccc([N+](=O)[O-])cc2Cl)n1 | -7.86

Structure (SMILES) | hERG current change (%, negative = inhibition) at 10uM [%]
CCc1ccc2nc(/N=C(\N)NC(=O)c3ccccc3)nc(C)c2c1 | 11.8
Cc1ncc(CN2CCN(CCC(C)C)C(CCO)C2)s1 (centres unmarked) | -20.1
O=C(Nc1ccc(Oc2cccc3ccccc23)cc1)c1ccco1 | 6.21
CCN(C(=O)COC(=O)CSc1cc(C)c2ccccc2n1)c1ccccc1 | -6.49
Cc1nn(C)c(C)c1NS(=O)(=O)c1ccc(N2CCCC2=O)cc1 | 21.5
CC(=O)Oc1ccc2oc3c(c2c1)C(=O)CCC3 | -5.26
CC(=O)N1CCN(S(=O)(=O)c2ccc(S(=O)(=O)NC3CCCCC3)cc2)CC1 | 9.1
Cc1nc(Cl)sc1C(=O)Nc1ccc(C(F)(F)F)cc1 | 5.32
Cc1cnn(C(=O)c2ccccc2Br)c1 | -16.1
O=C(CCC(=O)c1ccc(Cl)cc1)OCc1nc2ccsc2c(=O)[nH]1 | -16.7
CCCCn1c(N)c(N(CCC(C)C)C(=O)C2CC(=O)N(c3ccc4c(c3)OCCO4)C2)c(=O)[nH]c1=O (centres unmarked) | -5.4
CCCCC(CC)C(=O)Nc1cc(C(=O)NCc2ccc(C)cc2)ccc1N1CCC2(CC1)CC(c1ccccc1)=NO2 (centres unmarked) | 2.86
C=CCN(c1ccccc1)S(=O)(=O)c1cccc(C(=O)Nc2nnc(SCC)s2)c1 | 6.49
CCN(CC)c1ccc(/C=N/n2c(=S)[nH]nc(C)c2=O)cc1 | -4.56
CSc1ccccc1-c1nnc(-c2ccc(C)cc2)o1 | 5.39
Cc1ccc(/C(O)=C2/C(=O)C(=O)N(c3ccccn3)C2c2cccc([N+](=O)[O-])c2)cc1 (centres unmarked) | 10.8
Cc1cccc(C(=O)NCc2nnc(SCC(=O)NC3CCCC3)n2C)c1 | 17.2
CCOC(=O)C1(Cc2cccc(OC)c2)CCN(Cc2ccc(OC)c(OC)c2)CC1 | -68.8
CCOC(=O)/C(C#N)=C/Nc1ccccc1OC(F)(F)F | -6.63
O=S1(=O)CC2(N3CCOCC3)CCCCC21 (centres unmarked) | -8.23
CC1=C(C#N)C(c2cccnc2)C2=C(CC(c3ccc(Cl)cc3)CC2=O)N1 (centres unmarked) | -27.2
Cc1nn(C)cc1/C=C/C(=O)c1ccc(O)cc1 | 13.6

Structure (SMILES) | hERG current change (%, negative = inhibition) at 10uM [%]
COc1cc(C(=O)Nc2ccc(S(=O)(=O)Nc3ncccn3)cc2)c([N+](=O)[O-])cc1OC | 16.9
COC(=O)[C@H]1[C@H]2C[C@@H]3c4[nH]c5cc(OC)ccc5c4CCN3C[C@H]2C[C@@H](OC(=O)c2cc(OC)c(OC)c(OC)c2)[C@@H]1OC | -12.4
O=C(Nc1ccc(Cl)c(Cl)c1)Nc1ccc(Br)cc1F | 13.1
C#CCCOC(=O)Nc1ccccc1 | 7.35
O=C(Nc1ccc(Br)cn1)c1ccc([N+](=O)[O-])o1 | -10.7
Cc1ccc(C(=O)N2CCC(C)CC2)cc1C | 8.09
COc1ccc(CC(=O)N/N=C/c2ccc(-c3ccc(F)cc3)o2)cc1OC | -5.55
C=CCNC(=O)/C=C/c1cccs1 | 16.4
Cc1ccccc1CN1CCCC(C(=O)Nc2ccccc2Oc2cccnc2)C1 (centres unmarked) | 0.0346
Cc1ccc(C)c(S(=O)(=O)N2CCN(C(=O)c3ccc(OCc4c(C)noc4C)cc3)CC2)c1 | -21.9
Nc1ccc(C(=O)N/N=C/c2cn(Cc3ccc(F)cc3)c3ccccc23)cc1 | 3.3
O=C(NCCCN1CCOCC1)c1cccc(S(=O)(=O)NCc2ccccc2)c1 | -32
COc1ccc(F)cc1C(=O)C1CCCN(C(=O)CCc2ccccn2)C1 (centres unmarked) | 2.48
CCCC(=O)NC(c1ccc2c(c1)OCO2)c1cc(Cl)c2cccnc2c1O (centres unmarked) | -1.58
CC1CCCN(C(=O)COC(=O)C2CCN(S(=O)(=O)c3c(Cl)cccc3Cl)CC2)C1 (centres unmarked) | -39.4
Cc1ccccc1NC(=O)COC(=O)c1cc(=O)c2ccccc2o1 | -67.4
CC(C)Cn1cnc2c1c(=O)n(CC(=O)NC(=O)NC(C)(C)C)c(=O)n2Cc1ccccc1 | 5.69
Oc1c(C(c2ccccc2)N2CCN(Cc3ccccc3)CC2)sc2ncnn12 (centres unmarked) | -47.9
CCOC(=O)N1CCN(C(=O)C2CCN(c3nnc(-n4cccc4)s3)CC2)CC1 | -57.1
Clc1ccc(-c2nnc(C3CCCCC3)o2)cc1 | 2.44
